Test results from PubChem BioAssay AID624296 (National Center for Advancing Translational Sciences (NCATS), 2012).
Out of some 350,000 compounds screened, about 9,900 (2.8%) were called active. The shares of active, inactive and inconclusive entries below differ from those in the screen. Calls follow the shape of the dose curve; as a rule, active = well fitted activation curve with a large enough effect; inconclusive = small, poorly fitted or top-dose-only effect; inactive = no such curve, though single readings can be large or run the other way. No potency is given beside an inconclusive call; the fits are too rough.

Assay: A quantitative high throughput screen for small molecules that induce DNA re-replication in MCF 10a normal breast cells. Also: nearly all actives have a fitted effect of over 50% in size. As to activity, positive = re-replication: % of control where 0% means no effect.
Conditions: MCF 10A DNA re-replication, Hoechst nuclear intensity, 48 h; activity, positive = re-replication: at 46.1 µM (top of the series)
Potency is read from the fitted curve at half-maximal effect; tags tell the direction and shape of the fitted curve.

Structure (SMILES) | activity, positive = re-replication | Potency
O=C(NCC1CCCO1)c1ccc(COc2ccccc2Br)cc1 (stereo unspecified) | inactive: 3.19% | 
O=C(Nc1ccc2c(c1)OCO2)Nc1ccc(Br)cn1 |  | inconclusive [activator, single point]
COCc1nnc(NC(=O)c2sc3ccccc3c2Cl)s1 | inactive: 1.82% | 
C#CCOCCOCCOCCNc1nc(N2CCN(C(=O)[C@H](CCC(=O)O)n3cc(C(N)[C@H](C)CC)nn3)CC2)nc(N2CCN(C(=O)[C@H](CCC(=O)O)n3cc(C(N)[C@H](C)CC)nn3)CC2)n1 (stereo partly specified) |  | inconclusive [activator, full curve, poor fit]
COCC(=O)Nc1c(C(=O)Nc2ccc3c(c2)OCO3)oc2ccccc12 |  | inconclusive [activator, partial curve]
CCc1cc(-c2[nH]ncc2-c2ccc([N+](=O)[O-])cc2)c(O)cc1OC |  | inconclusive [activator, single point]
O=C(Oc1c(Br)cc([N+](=O)[O-])cc1Br)c1cccnc1 |  | inconclusive [activator, single point]
O=c1c(-c2nnc(SCc3ccc(Cl)cc3)o2)cccn1Cc1ccccc1 | inactive: 16.6% | 
COc1ccc([N+](=O)[O-])cc1NC1CCN(C(=O)c2cccs2)CC1 | inactive: 5.34% | 
COc1ccccc1N1CCN(C(=O)c2ccccc2N(C)S(=O)(=O)c2ccc(C)cc2)CC1 |  | inconclusive [activator, partial curve, poor fit]
C=C(C(=O)Oc1c(C(C)(C)C)cccc1C(C)(C)C)c1ccccc1 | inactive: 2.47% | 
CCn1c(C)nc([N+](=O)[O-])c1Sc1ccc(F)cc1 |  | inconclusive [activator, partial curve, poor fit]
NS(=O)(=O)c1ccc(CCNCc2cc(Br)ccc2OCc2ccccc2F)cc1 |  | inconclusive [activator, single point]
c1cncc(-c2nnc(-c3ccco3)o2)c1 | inactive: -4.21% | 
COc1ccccc1CSc1nc2ccccc2[nH]1 |  | active: 8.2 µM
Cc1ccc(C)c(N2CCN(C(=O)C3CCCN(c4ncnc5c4nc4n5CCCCC4)C3)CC2)c1 (stereo unspecified) |  | active: 20.6 µM
COc1ccc(Nc2c[nH]c(=O)[nH]c2=O)cc1 | inactive: -0.116% | 
CC(=O)Nc1cccc(Oc2ccc(-c3noc(C)n3)cc2)c1 |  | inconclusive [activator, partial curve, poor fit]
O=C1CCCC2=C1C(c1cccs1)n1nc(SCc3ccccc3F)nc1N2 (stereo unspecified) |  | inconclusive [activator, partial curve]
COc1ccc(-n2c(C)cc(C3=NNC(=NC4CC4)SC3)c2C)cc1 |  | active: 9.2 µM
Cc1cccc(N2CCN(C(=O)C3CCN(c4ncnc5c4nc4n5CCCCC4)CC3)CC2C)c1 (stereo unspecified) |  | active: 14.6 µM
CCN(CC)C(=S)SCC(=O)c1ccc(F)cc1 |  | inconclusive [activator, single point]
CC(=O)Nc1cc(-c2nn(C)c(=O)c3ccccc23)ccc1N1CCOCC1 | inactive: 1.01% | 
NC(=O)[C@H]1CC2(CC(c3cccc(NC(=O)COc4ccc(Cl)cc4)c3)=NO2)CN1C(=O)CC(c1ccccc1)c1ccccc1 (stereo partly specified) |  | inconclusive [activator, partial curve, poor fit]

Structure (SMILES) | activity, positive = re-replication | Potency
COc1ccc(CNC(N)=O)cc1 | inactive: -4.05% | 
Cc1c(C(=O)N(C)Cc2ccccc2)oc2c(Cl)cccc12 |  | active: 18.4 µM
Cc1ccc(NS(=O)(=O)c2ccc3c(c2)NC(=O)C(C)C(=O)N3)cc1C (stereo unspecified) | inactive: -2.72% | 
CCOC(=O)N1CCN(Cc2ccc(O)c3ncccc23)CC1 |  | active: 20.6 µM
Cc1ccc(NC(=O)COC(=O)C2CSC3(C)CCC(=O)N23)c(C)c1 (stereo unspecified) |  | inconclusive [activator, partial curve, poor fit]
COc1ccccc1N1CCN(C(=O)C2CCC(Cn3c(=S)[nH]c4ccccc4c3=O)CC2)CC1 (stereo unspecified) |  | inconclusive [activator, full curve, poor fit]
COc1ccnc(Oc2ccc(F)cc2)c1C(=O)N/C=N/OCc1ccc(Cl)cc1Cl |  | inconclusive [activator, partial curve, poor fit]
CC(=O)N(c1nnc(-c2cccc(C)c2)s1)C1CCCC1 | inactive: 8.41% | 
COc1ccc(C(CNC(=O)c2ccc(-c3ccccc3)cc2)N(C)C)cc1OC (stereo unspecified) |  | inconclusive [activator, single point]
Cc1ccccc1C(=O)NC(=S)NCCC1=CCCCC1 |  | inconclusive [activator, single point]
COc1ccc(CN(C)CC(=O)NC2CCCc3ccccc32)cc1OC (stereo unspecified) |  | inconclusive [activator, partial curve]
C(=N\Nc1nc2ccccc2[nH]1)/c1c[nH]c2ccccc12 |  | inconclusive [activator, single point]
N#Cc1nc(Cc2ccccc2)oc1NCCCn1ccnc1 |  | inconclusive [activator, partial curve, poor fit]
N#CCC(=O)N/N=C\c1cccc(OC/C=C/c2ccccc2)c1 | inactive: 2.05% | 
CC(C)CCn1c(Sc2nc3ccccc3s2)nc2c1c(=O)[nH]c(=O)n2C |  | inconclusive [activator, partial curve, poor fit]
Cc1cccc(-c2noc(CN(C(=O)c3ccc(Br)o3)C(C)C)n2)c1 |  | inconclusive [activator, partial curve, poor fit]
CCCc1nnc2n1N=C(c1ccc(OC)c(OC)c1)CS2 | inactive: 11.5% | 
Cc1cc(=O)oc2cc(Oc3ncccc3[N+](=O)[O-])ccc12 | inactive: -4.67% | 
CC(C)(C)OC(=O)CNC(=O)c1[nH]cnc1C(=O)N[C@@H](Cc1ccccc1)C(=O)OC(C)(C)C | inactive: -10.5% | 
Cc1ccc(O)c(C=Nc2cc(C)ccc2O)c1 |  | inconclusive [activator, single point]
COc1cc(-c2nnc(NC(=O)CS(=O)(=O)c3ccc(F)cc3)o2)cc(OC)c1OC |  | inconclusive [activator, single point]
COc1ccc(C(=O)Nc2ccc3c(c2)nc2n3CCSC2)cc1 | inactive: 1.85% | 
Cc1oc2ccc(OCc3ccc(Br)cc3)cc2c1C(=O)O |  | inconclusive [activator, partial curve, poor fit]
CC(=O)c1cccc(NC(=O)CCc2nnc3ccc(N4CCN(C)CC4)nn23)c1 |  | inconclusive [activator, partial curve, poor fit]

Structure (SMILES) | activity, positive = re-replication | Potency
COc1ccc(NC(=O)c2cccnc2NCCc2ccccc2)cc1 | inactive: 6.72% | 
Cc1ccc(S(=O)(=O)N2[C@@H](c3ccc(Br)cc3)C(C(=O)O)=CC[C@H]2c2ccc(Cl)cc2)cc1 |  | inconclusive [activator, single point]
c1ccc(-c2nc(NCCCn3ccnc3)c3oc4ccccc4c3n2)cc1 |  | inconclusive [activator, partial curve, poor fit]
O=C(CSc1nc(-c2ccccc2)cc(=O)[nH]1)N1CCc2ccccc21 |  | inconclusive [activator, partial curve, poor fit]
CCN(CC)C(=O)c1ccc(NS(=O)(=O)c2ccc3[nH]c(=O)[nH]c3c2)cc1 | inactive: -3.3% | 
COc1cccc(-n2c(SCC(=O)Nc3cc(C)on3)nc3ccccc3c2=O)c1 | inactive: -1.37% | 
Cc1cccc(-n2nnnc2SCC(=O)Nc2ccc(N3CCN(C)CC3)cc2)c1 |  | inconclusive [activator, full curve, poor fit]
COc1cc(S(=O)(=O)N(C)C2CCCCC2)c(C)cc1C |  | inconclusive [activator, single point]
CC1=C(C(=O)Nc2ccccc2)C(c2ccc(C(C)C)cc2)N2C(=O)CSC2=N1 (stereo unspecified) |  | inconclusive [activator, partial curve, poor fit]
CCC(=O)Nc1nn(CC(C)C)c2nc3ccc(C)cc3cc12 |  | inconclusive [activator, single point]
CC(=O)c1cccc(NC(=O)CCCN(C)S(=O)(=O)c2ccc(F)cc2)c1 | inactive: 2.33% | 
Cc1c(Cl)cccc1NC(=O)NC1CCCCC1 | inactive: -1.28% | 
CCCn1cc(NC(=O)C2CC(c3cccc(Br)c3)=NO2)cn1 (stereo unspecified) |  | active: 23.1 µM
CCOC(=O)C1CCN(C/C=C/c2ccccc2)CC1 |  | inconclusive [activator, partial curve, poor fit]
CCc1ccc(NC(=O)CSC2=C(C#N)C(c3ccco3)C3=C(CCCC3=O)N2)cc1 (stereo unspecified) |  | active: 18.4 µM
O=C(/C=C/c1ccccc1)c1ccccc1O |  | active: 20.6 µM
COc1cccc(Nc2ncnc3ccccc23)c1 |  | inconclusive [activator, single point]
COc1ccc(-c2cc(C(F)(F)F)c3c(n2)sc2c(O)cc(=O)[nH]c23)c(OC)c1 |  | inconclusive [activator, full curve, poor fit]
Cc1ccc(C(=O)NC(=S)Nc2ccc(NC(=O)c3cccs3)cc2)cc1[N+](=O)[O-] |  | inconclusive [activator, single point]
Cc1ccc(C(=O)NCCc2nnc3c(C(F)(F)F)cc(Cl)cn23)o1 | inactive: -1.41% | 
Nc1ncnc(NCc2ccccc2)c1[N+](=O)[O-] |  | inconclusive [activator, single point]
COc1ccccc1N1CCN(C(=O)[C@H](C)NS(=O)(=O)c2ccc3c(c2)OCCCO3)CC1 | inactive: 14.7% | 
COC1=C(Nc2ccc(OC)cc2)C(=O)c2ccccc2C1=O |  | inconclusive [activator, partial curve, poor fit]
